According to patent US7619094B2, “Ketoamides with cyclic P4's as inhibitors of NS3 serine protease of hepatitis C virus” (Schering Corporation, priority 2004, dated 2009):

target: Recombinant heterodimeric HCV NS3/NS4A protease (strain 1a) (Hepatitis C virus genotype 1a, UniProt P27958); assay: HCV continuous assay (spectrophotometric HCV NS3/NS4A serine protease inhibition assay); type: biochemical, HCV (strain 1a); details: Table 1; ranges of Ki* values in HCV continuous assay

| Structure (SMILES) | pKi |
| --- | --- |
| C#CCCC(NC(=O)[C@@H]1[C@@H]2[C@H](CN1C(=O)[C@@H](NC(=O)N[C@H](CN1CCNS1(=O)=O)C(C)(C)C)C(C)(C)C)C2(C)C)C(=O)C(=O)NCC=C (some centres unmarked) [Compound 5156] | ≥ 7.30 |
| CC(C)[C@@H](CN1CCCS1(=O)=O)NC(=O)N[C@H](C(=O)N1C[C@H]2[C@@H]([C@H]1C(=O)NC(CC1CC1)C(=O)C(N)=O)C2(C)C)C(C)(C)C (some centres unmarked) [Compound 5109] | ≥ 7.30 |
| C=CCNC(=O)C(=O)C(CCCC)NC(=O)[C@@H]1[C@@H]2[C@H](CN1C(=O)[C@@H](NC(=O)N[C@H](CN1Cc3ccccc3S1(=O)=O)C(C)(C)C)C1(C)CCCCC1)C2(C)C (some centres unmarked) [Compound 5258] | ≥ 7.30 |
| C=CCNC(=O)C(=O)C(CCCC)NC(=O)[C@@H]1[C@@H]2[C@H](CN1C(=O)[C@@H](NC(=O)N[C@H](CN1CCCCS1(=O)=O)C(C)(C)C)C1CCCCC1)C2(C)C (some centres unmarked) [Compound 5183] | ≥ 7.30 |
| C=CCNC(=O)C(=O)C(CCCC)NC(=O)[C@@H]1[C@@H]2[C@H](CN1C(=O)[C@@H](NC(=O)N[C@H](CN1Cc3sccc3S1(=O)=O)C(C)(C)C)C1CCCCC1)C2(C)C (some centres unmarked) [Compound 5178] | ≥ 7.30 |
| C=CCNC(=O)C(=O)C(CCC(F)(F)F)NC(=O)[C@@H]1[C@@H]2[C@H](CN1C(=O)[C@@H](NC(=O)N[C@H](CN1CCCS1(=O)=O)C(C)C)C(C)(C)C)C2(C)C (some centres unmarked) [Compound 5108] | < 7.30 |
| CCCCC(NC(=O)[C@@H]1[C@@H]2[C@H](CN1C(=O)[C@@H](NC(=O)N[C@H](CN1Cc3sccc3S1(=O)=O)C(C)(C)C)C1CCCCC1)C2(C)C)C(=O)C(N)=O (some centres unmarked) [Compound 5192] | ≥ 7.30 |
| C=CCNC(=O)C(=O)C(CCCC)NC(=O)[C@@H]1[C@@H]2[C@H](CN1C(=O)[C@@H](NC(=O)N[C@H](CN1CCN(C(C)C)S1(=O)=O)C(C)(C)C)C(C)(C)C)C2(C)C (some centres unmarked) [Compound 5205] | ≥ 7.30 |
| C=CCNC(=O)C(=O)C(CCC)NC(=O)[C@@H]1[C@@H]2[C@H](CN1C(=O)[C@@H](NC(=O)N[C@H](CN1CCN(C(C)=O)S1(=O)=O)C(C)(C)C)C1CCCCC1)C2(C)C (some centres unmarked) [Compound 5201] | ≥ 7.30 |
| C=CCNC(=O)C(=O)C(CCCC)NC(=O)[C@@H]1[C@@H]2[C@H](CN1C(=O)[C@@H](NC(=O)NC1(CN3Cc4sccc4S3(=O)=O)CCCCC1)C(C)(C)C)C2(C)C (some centres unmarked) [Compound 5206] | ≥ 7.30 |
| CC(C)(C)[C@H](NC(=O)N[C@H](CN1CCCCS1(=O)=O)C1CCCCC1)C(=O)N1C[C@H]2[C@@H]([C@H]1C(=O)NC(CC1CCC1)C(=O)C(N)=O)C2(C)C (some centres unmarked) [Compound 5232] | ≥ 7.30 |
| C=CCNC(=O)C(=O)C(CCCC)NC(=O)[C@@H]1[C@@H]2[C@H](CN1C(=O)[C@@H](NC(=O)N[C@H](CN1CCCCS1(=O)=O)C(C)(C)C)C(C)(C)C)C2(C)C (some centres unmarked) [Compound 5191] | ≥ 7.30 |
| C=CCNC(=O)C(=O)C(CCCC)NC(=O)[C@@H]1[C@@H]2[C@H](CN1C(=O)[C@@H](NC(=O)N[C@H](CN1Cc3ccccc3S1(=O)=O)C(C)(C)C)C(C)(C)C)C2(C)C (some centres unmarked) [Compound 5164] | ≥ 7.30 |
| C=CCNC(=O)C(=O)C(CCC)NC(=O)[C@@H]1[C@@H]2[C@H](CN1C(=O)[C@@H](NC(=O)N[C@H](CN1CCN(C)S1(=O)=O)C(C)(C)C)C(C)(C)C)C2(C)C (some centres unmarked) [Compound 5150] | ≥ 7.30 |
| C=CCNC(=O)C(=O)C(CC1CC1)NC(=O)[C@@H]1[C@@H]2[C@H](CN1C(=O)[C@@H](NC(=O)N[C@H](CN1CCCS1(=O)=O)C(C)C)C(C)(C)C)C2(C)C (some centres unmarked) [Compound 5107] | ≥ 7.30 |
| C=CCNC(=O)C(=O)C(CC1CCC1)NC(=O)[C@@H]1[C@@H]2[C@H](CN1C(=O)[C@@H](NC(=O)N[C@H](CN1CCCS1(=O)=O)C(C)(C)C)C1CCCCC1)C2(C)C (some centres unmarked) [Compound 5143] | ≥ 7.30 |
| CC(C)(C)[C@H](NC(=O)N[C@H](CN1CCCCS1(=O)=O)C(C)(C)C)C(=O)N1C[C@H]2[C@@H]([C@H]1C(=O)NC(CC1CC1)C(=O)C(N)=O)C2(C)C (some centres unmarked) [Compound 5197] | ≥ 7.30 |
| C=CCNC(=O)C(=O)C(CC1CC1)NC(=O)[C@@H]1[C@@H]2[C@H](CN1C(=O)[C@@H](NC(=O)N[C@H](CN1CCCS1(=O)=O)C(C)(C)C)C1CCCCC1)C2(C)C (some centres unmarked) [Compound 5135] | ≥ 7.30 |
| CCCCC(NC(=O)[C@@H]1[C@@H]2[C@H](CN1C(=O)[C@@H](NC(=O)N[C@H](CN1Cc3sccc3S1(=O)=O)C(C)(C)C)C1CCCCC1)C2(C)C)C(=O)C(=O)NCC (some centres unmarked) [Compound 5245] | ≥ 7.30 |
| CC(C)(C)[C@H](NC(=O)N[C@H](CN1Cc2ccccc2S1(=O)=O)C1CCCCC1)C(=O)N1C[C@H]2[C@@H]([C@H]1C(=O)NC(CC1CCC1)C(=O)C(N)=O)C2(C)C (some centres unmarked) [Compound 5227] | ≥ 7.30 |
| CCCC(NC(=O)[C@@H]1[C@@H]2[C@H](CN1C(=O)[C@@H](NC(=O)N[C@H](CN1CCCN(C)S1(=O)=O)C(C)(C)C)C(C)(C)C)C2(C)C)C(=O)C(=O)NC (some centres unmarked) [Compound 5128] | ≥ 7.30 |
| C=CCNC(=O)C(=O)C(CC1CC1)NC(=O)[C@@H]1[C@@H]2[C@H](CN1C(=O)[C@@H](NC(=O)N[C@H](CN1Cc3sccc3S1(=O)=O)C(C)(C)C)C1CCCCC1)C2(C)C (some centres unmarked) [Compound 5179] | ≥ 7.30 |
| CC(C)(C)[C@H](NC(=O)N[C@H](CN1C(=O)c2ccccc2S1(=O)=O)C(C)(C)C)C(=O)N1C[C@H]2[C@@H]([C@H]1C(=O)NC(CC1CCC1)C(=O)C(N)=O)C2(C)C (some centres unmarked) [Compound 5163] | ≥ 7.30 |
| C=CCNC(=O)C(=O)C(CCC)NC(=O)[C@@H]1[C@@H]2[C@H](CN1C(=O)[C@@H](NC(=O)N[C@H](CN1CCN(C(C)=O)S1(=O)=O)C(C)(C)C)C(C)(C)C)C2(C)C (some centres unmarked) [Compound 5202] | ≥ 7.30 |

same assay, conditions: Table 2; ranges of Ki* values in HCV continuous assay

| Structure (SMILES) | pKi |
| --- | --- |
| C=CCNC(=O)C(=O)C(CC1CC1)NC(=O)[C@@H]1[C@@H]2[C@H](CN1C(=O)[C@@H](NC(=O)N[C@H](CN1C(=O)CC3(CCCC3)CC1=O)C(C)(C)C)C1(C)CCCCC1)C2(C)C (some centres unmarked) [Compound 5793] | ≥ 7.30 |
| C=CCNC(=O)C(=O)C(CC1CC1)NC(=O)[C@@H]1[C@@H]2[C@H](CN1C(=O)[C@@H](NC(=O)N[C@H](CN1CCCCC1=O)C(C)(C)C)C1CCCCC1)C2(C)C (some centres unmarked) [Compound 5714] | ≥ 7.30 |
| C=CCNC(=O)C(=O)C(CCC(F)(F)F)NC(=O)[C@@H]1[C@@H]2[C@H](CN1C(=O)[C@@H](NC(=O)N[C@H](Cn1ccccc1=O)C(C)C)C(C)(C)C)C2(C)C (some centres unmarked) [Compound 5606] | ≥ 7.30 |
| C#CCCC(NC(=O)[C@@H]1[C@@H]2[C@H](CN1C(=O)[C@@H](NC(=O)NC1(CN3C(=O)c4ccccc4C3=O)CCCCC1)C(C)(C)C)C2(C)C)C(=O)C(=O)NCC=C (some centres unmarked) [Compound 5696] | ≥ 7.30 |
| CC(C)(C)OC(=O)N1CC[C@H](NC(=O)N[C@H](C(=O)N2C[C@@H]3OC(C)(C)C[C@@H]3[C@H]2C(=O)NC(CC2CC2)C(=O)C(N)=O)C2CCCCC2)C1 (some centres unmarked) [Compound 5625] | < 7.30 |
| C=CCNC(=O)C(=O)C(CCCC)NC(=O)[C@@H]1[C@@H]2[C@H](CN1C(=O)[C@@H](NC(=O)N[C@H](CN1C(=O)CNC1=O)C(C)(C)C)C(C)(C)C)C2(C)C (some centres unmarked) [Compound 5805] | ≥ 7.30 |
| CCCC(NC(=O)[C@@H]1[C@@H]2[C@H](CN1C(=O)[C@@H](NC(=O)N[C@H](CN1C(=O)CC(C)(C)CC1=O)C(C)(C)C)C1(C)CCCCC1)C2(C)C)C(=O)C(=O)NC1CC1 (some centres unmarked) [Compound 5809] | ≥ 7.30 |
| C=CCNC(=O)C(=O)C(CCC)NC(=O)[C@@H]1[C@@H]2[C@H](CN1C(=O)[C@@H](NC(=O)N[C@H](CN1C(=O)Cc3ccccc3C1=O)C(C)(C)C)C(C)(C)C)C2(C)C (some centres unmarked) [Compound 5733] | ≥ 7.30 |
| C=CCNC(=O)C(=O)C(CCCC)NC(=O)[C@@H]1[C@@H]2[C@H](CN1C(=O)[C@@H](NC(=O)N[C@H](CN1C(=O)CCCC1=O)C(C)(C)C)C1CCCCC1)C2(C)C (some centres unmarked) [Compound 5705] | ≥ 7.30 |
| C=CCNC(=O)C(=O)C(CCC(F)(F)F)NC(=O)[C@@H]1[C@@H]2[C@H](CN1C(=O)[C@@H](NC(=O)N[C@H](CN1Cc3ccccc3C1=O)C(C)(C)C)C(C)(C)C)C2(C)C (some centres unmarked) [Compound 5747] | ≥ 7.30 |
| CC(C)(C)[C@H](NC(=O)NC1(CN2C(=O)c3ccccc3C2=O)CCCCC1)C(=O)N1C[C@H]2[C@@H]([C@H]1C(=O)NC(CC1CCC1)C(=O)C(N)=O)C2(C)C (some centres unmarked) [Compound 5682] | ≥ 7.30 |
| C#CCCC(NC(=O)[C@@H]1[C@@H]2[C@H](CN1C(=O)[C@@H](NC(=O)N[C@H](CN1CCCCC1=O)C(C)(C)C)C1Cc3ccccc3C1)C2(C)C)C(=O)C(=O)NCC=C (some centres unmarked) [Compound 5787] | ≥ 7.30 |
| CCCC(NC(=O)[C@@H]1[C@@H]2[C@H](CN1C(=O)[C@@H](NC(=O)N[C@H](CN1C(=O)c3ccccc3C1=O)C(C)(C)C)C(C)(C)C)C2(C)C)C(=O)C(=O)NCC (some centres unmarked) [Compound 5653] | ≥ 7.30 |
| C=CCNC(=O)C(=O)C(CC1CC1)NC(=O)[C@@H]1[C@@H]2[C@H](CN1C(=O)[C@@H](NC(=O)N[C@H](CN1CCCCC1=O)C1CCCCC1)C(C)(C)C)C2(C)C (some centres unmarked) [Compound 5732] | ≥ 7.30 |
| C=CCNC(=O)C(=O)C(CCC)NC(=O)[C@@H]1[C@@H]2[C@H](CN1C(=O)[C@@H](NC(=O)N[C@H](CN1CCCCC1=O)C(C)(C)C)C1CCCCC1)C2(C)C (some centres unmarked) [Compound 5710] | ≥ 7.30 |
| C#CCCC(NC(=O)[C@@H]1[C@@H]2[C@H](CN1C(=O)[C@@H](NC(=O)N[C@H](CN1C(=O)CC(C)(C)CC1=O)C(C)(C)C)C(C)(C)C)C2(C)C)C(=O)C(=O)NCC=C (some centres unmarked) [Compound 5759] | ≥ 7.30 |
| C=CCNC(=O)C(=O)C(CCC)NC(=O)[C@@H]1[C@@H]2[C@H](CN1C(=O)[C@@H](NC(=O)N[C@H](CN1CCCCC1=O)C(C)(C)C)C(C)(C)C)C2(C)C (some centres unmarked) [Compound 5645] | ≥ 7.30 |
| C#CCCC(NC(=O)[C@@H]1[C@@H]2[C@H](CN1C(=O)[C@@H](NC(=O)N[C@H](CN1Cc3ccccc3C1=O)C(C)(C)C)C(C)(C)C)C2(C)C)C(=O)C(=O)NCC=C (some centres unmarked) [Compound 5749] | ≥ 7.30 |
| C=CCNC(=O)C(=O)C(CCCC)NC(=O)[C@@H]1[C@@H]2[C@H](CN1C(=O)[C@@H](NC(=O)N[C@H](CN1Cc3ccccc3C1=O)C(C)(C)C)C(C)(C)C)C2(C)C (some centres unmarked) [Compound 5748] | ≥ 7.30 |
| C=CCNC(=O)C(=O)C(CC1CC1)NC(=O)[C@@H]1[C@@H]2[C@H](CN1C(=O)[C@@H](NC(=O)N[C@H](CN1C(=O)CC(C)(C)CC1=O)C(C)(C)C)C1(C)CCCCC1)C2(C)C (some centres unmarked) [Compound 5803] | ≥ 7.30 |
| CC(C)(C)[C@H](NC(=O)N[C@H](CN1C(=O)c2ccccc2C1=O)C(C)(C)C)C(=O)N1C[C@@H]2CCC[C@@H]2[C@H]1C(=O)NC(CC1CCC1)C(=O)C(N)=O (some centres unmarked) [Compound 5718] | ≥ 7.30 |

same assay, conditions: Table 4; Ki* values

| Structure (SMILES) | pKi |
| --- | --- |
| C=CCNC(=O)C(=O)C(CC1CC1)NC(=O)[C@@H]1[C@@H]2[C@H](CN1C(=O)[C@@H](NC(=O)N[C@H](CN1C(=O)CC3(CCCC3)CC1=O)C(C)(C)C)C1(C)CCCCC1)C2(C)C (some centres unmarked) [Compound 5793] | 7.96 |
| C=CCNC(=O)C(=O)C(CCCC)NC(=O)[C@@H]1[C@@H]2[C@H](CN1C(=O)[C@@H](NC(=O)N[C@H](CN1C(=O)CCCC1=O)C(C)(C)C)C1CCCCC1)C2(C)C (some centres unmarked) [Compound 5705] | 8.52 |

pKi: −log10 of the molar value.
